The campaign covered roughly 360,000 compounds. About 25,000 (6.9%) were called active. This list was built around the results that the source calls inconclusive (neither active nor inactive); the mix of calls is not that of the screen. Calls follow the shape of the dose curve; as a rule, active = well fitted inhibition curve with a large enough effect; inconclusive = small, poorly fitted or top-dose-only effect; inactive = flat fitted curve, though single readings scatter. A potency beside an inconclusive call is a rough fit, not a confirmed value.
Each molecule was assayed against Luciferin 4-monooxygenase (Photinus pyralis) (UniProt P08659) (assay: qHTS profiling assay for firefly luciferase inhibitor/activator using purifed enzyme and Km concentrations of substrates (counterscreen for miR-21 project)). Details: purified FLuc, luminescence inhibition; activity change, negative = inhibition: at 57.5 µM (top of the series).
Outline: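 Purified P. pyralis luciferase (10nM final) with 10uM D-luciferin and 10uM ATP (Km levels) in 50mM Tris acetate pH 7.5, 10mM Mg acetate, 0.01% Tween-20, 0.05% BSA; qHTS 6-point titration, ~60 µM downward; luminescence read.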
Also: nearly all actives have a fitted effect of over 55% in size.
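For activity change, negative = inhibition in this document: plate controls were vehicle for no effect and reference inhibitor for full effect.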
Potency is read from the fitted curve at half-maximal effect; tags tell the direction and shape of the fitted curve.

UniProt P08659, sequence (P08659 whole entry, looked up): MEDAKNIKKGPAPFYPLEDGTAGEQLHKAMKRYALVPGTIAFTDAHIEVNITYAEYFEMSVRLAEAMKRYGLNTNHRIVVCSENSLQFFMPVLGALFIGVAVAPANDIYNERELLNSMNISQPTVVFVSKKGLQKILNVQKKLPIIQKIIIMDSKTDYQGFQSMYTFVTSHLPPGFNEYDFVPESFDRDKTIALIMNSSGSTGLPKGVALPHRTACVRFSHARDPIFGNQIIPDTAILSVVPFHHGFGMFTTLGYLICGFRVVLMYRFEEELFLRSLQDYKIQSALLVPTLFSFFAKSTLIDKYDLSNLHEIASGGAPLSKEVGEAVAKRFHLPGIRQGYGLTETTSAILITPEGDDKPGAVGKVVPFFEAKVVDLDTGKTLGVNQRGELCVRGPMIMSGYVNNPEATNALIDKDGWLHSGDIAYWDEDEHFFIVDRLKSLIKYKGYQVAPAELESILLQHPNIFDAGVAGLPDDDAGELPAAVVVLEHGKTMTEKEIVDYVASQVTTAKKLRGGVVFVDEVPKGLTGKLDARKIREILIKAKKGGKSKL

| SMILES | activity change, negative = inhibition | Potency |
| --- | --- | --- |
| C=CCN(C(=O)c1csnn1)C(C(=O)NC1CCCC1)c1ccccc1 (stereo unspecified) | inactive: 2.25% |  |
| COc1ccc2c(CNCCc3ccc(SC)cc3)c(C(=O)O)n(Cc3ccc(F)cc3)c2c1 | inactive: -0.667% |  |
| Cc1nc(-c2ccc(S(=O)(=O)Nc3cc(Cl)ccc3C)cc2)co1 |  | inconclusive: 37.9 µM [inhibitor, partial curve, poor fit] |
| COc1ccc(Cn2cc(S(=O)(=O)c3ccc(C)cc3)c(=O)c3cc(F)ccc32)cc1 | inactive: -4.41% |  |
| Cc1ccc(-c2cn3cccnc3n2)cc1NC(=O)C(C)(C)Oc1ccc(Cl)cc1 | inactive: -13.8% |  |
| COc1ccccc1OCc1ccc(C(=O)Nc2ccccc2)cc1 | inactive: -17.1% |  |
| COc1cccc(NCc2cccn2-c2nnc(N3CCC(C)CC3)s2)c1 |  | inconclusive: 21.3 µM [inhibitor, partial curve] |
| COC(=O)c1ccc2c(c1)C(C)(C)C(/C=C/c1ccc(OC)c(OC)c1OC)=[N+]2C |  | inconclusive: 12 µM [inhibitor, partial curve] |
| Cc1cccc(-c2nn(-c3ccccc3)cc2C(=O)Nc2cccc(S(=O)(=O)NC3=NCCC3)c2)c1 |  | inconclusive: 19 µM [inhibitor, single point] |
| O=C(Nc1cccc(S(=O)(=O)N2CCOCC2)c1)c1cc2ccccc2o1 |  | active: 16.9 µM |
| CCSc1nn2c(=O)c3ccccc3nc2s1 |  | active: 19 µM |
| Cn1nccc1C(=O)N/N=C/c1cccnc1 | inactive: -15.3% |  |
| CC(=O)Nc1cccc(C(=O)OCC(=O)NC(=O)Cc2ccccc2)c1 |  | inconclusive: 19 µM [inhibitor, partial curve, poor fit] |
| CC(C)Cn1c(SCc2nc3ccccc3c(=O)[nH]2)nc2ccccc2c1=O | inactive: -1.06% |  |
| O=C(NCc1csc(-c2ccccc2)n1)c1ccco1 |  | inconclusive: 19 µM [inhibitor, single point] |
| CC1N=C2c3ccccc3N=C(SCC(=O)NCCc3ccc(Cl)cc3)N2C1=O (stereo unspecified) | inactive: 2.6% |  |
| O=C(Cc1ccc(Cl)cc1)NNC(=S)NC(=O)c1cccnc1 |  | inconclusive: 21.3 µM [inhibitor, partial curve, poor fit] |
| Cc1ccc(NC(=O)C(=O)NNC(=O)c2cccs2)cc1 |  | inconclusive: 37.9 µM [inhibitor, single point] |
| Cc1cccc(C(=O)N=c2sccn2C)c1[N+](=O)[O-] |  | active: 15.1 µM |
| CSc1ccccc1C(=O)Nc1ncc(C)s1 |  | inconclusive: 21.3 µM [inhibitor, partial curve, poor fit] |
| CC(=O)c1ccc2noc(-c3cccc(C)c3)c2c1 |  | inconclusive: 30.1 µM [inhibitor, partial curve, poor fit] |

— PubChem BioAssay AID588342 (National Center for Advancing Translational Sciences (NCATS), 2011)
